This passage reports self-cleavage results from the RNAGym collection of RNA variant scans (doi:10.7554/elife.90254).

The source gives no read counts; variants with many changes may rest on few reads.

First the molecules themselves.
B1: LINE1-mini (parent)
chain: GGCAGAGCUCAACACAGCGUGGCAAAGUGGCUGUGGCUAGACUGCC

The series covers variants of B1. The experiment in a line: self-cleavage, relative activity (ratio to wild type); higher = more cleavage; in vitro, sequencing; the parent is a self-cleaving ribozyme.
Regarding GGCACAGCUCAACACAGCGUGGCAAAGUUGUUGUGGCUAAAAUGCC [G5C G29U C31U G40A C42A], the self-cleavage is 0.04.
For GGCACAGCUCAACACAGCGUAUCAAAGUGGCUGUGGCUAGACUGCC [G5C G21A G22U] the value was 0.02; for GGCACAGCUCAACACAGCGUGGCAAAGGGGCUGCGGUUAGACUGCC [G5C U28G U34C C37U], 0.03.
The value for GGCACAGCUCAACACAGCUUGGCAAAGAUGCUGUGGCUAGUCUGCC [G5C G19U U28A G29U A41U] was 0.06; that for GGCACAGCUCAACACAGCGUGGCAAACUCGCUGUGGCUAGACUGCC [G5C G27C G29C] was 0.02.
For GGCACAGCUCAACACAGCGUGCCAAAGUGGCUGUGCCUAGACUGCC [G5C G22C G36C] the value was 0.01.
Turning to GGCACAGCUCAACACAGCGUGGCAAAGUGUCUUUGUCUAUAAUGCC [G5C G30U G33U G36U G40U C42A], the self-cleavage came to 0.08.
With GGCACAGCUCAACACAGCGUGGCAAAGUGGCUGUAACUAGACUGCA [G5C G35A G36A C46A], the self-cleavage worked out at 0.05.
As to GGCACAGCUCAACACAGCGGGGCAUAGUGGCUGUGGCUAGACUGCC [G5C U20G A25U], the self-cleavage is 0.05.
For GGCACAGCUCAACACAGCGUGGCAAAGUGCCUGUAGCUAGACUACC [G5C G30C G35A G44A] the value was 0.01; for GGCACAGCUCAACACAGCGUGGCAAAGUGGCUGUGGCUACACACUC [G5C G40C U43A G44C C45U], 0.01.
The value for GGCACAGCUCAACACAGCGUGGCAAAGUGACUGUGCCUAGACUGCC [G5C G30A G36C] was 0.06.
For GGCACAGCUCAACACAUCGUGGCAAAGUGGUUGUGGCUAGACUGCC [G5C G17U C31U] the value was 0.01; for GGCACAGCUCAACACAGCGAGGCAACGUGGCUGUAGCUAGACUGCC [G5C U20A A26C G35A], 0.1.
For the variant GGCACAGCUCAACACAGCGUGUCCAAGUGGCUGUGGCUAGACUGCC [G5C G22U A24C], the self-cleavage was 0.02.
Regarding GGCACAGCUCAACACAGCGUGGCAAAUUGGCUGUGGCUAGACUUCC [G5C G27U G44U], the self-cleavage was found to be 0.05.
GGCACAGCGCAACACAGCGCGACAAAGUGGCUGUGGCUCGACUGCC [G5C U9G U20C G22A A39C]: the self-cleavage turned out to be 0.01.
For GGCACAGCACAACACAGCGUGGCAACGUGGCUAAGGCUAGACUGCA [G5C U9A A26C G33A U34A C46A] the value was 0.09.
For GGCACAGCCCAAAACAGCGUGGCAAAGUGGCUGUGGCUAGACUGCC [G5C U9C C13A] the value was 0.03; for GGCACAGCUCAACACAGCGGGGCAAAGUGGCUGUCGCUAGACUGCC [G5C U20G G35C], 0.17; for GGCACAGCUCAACACAGCGUGGCAAAAUGGCUGUGGCAAGACUGCC [G5C G27A U38A], 0.13.
With GGCACAGCUCAACACAGCGAUGCAAAGUGGCUGUGGCUAGACUGCC [G5C U20A G21U], the self-cleavage amounted to 0.03.
For GGCACAGCACAACACAGCGUAGCAAAGUGGCUGUGGCUAGAUUGCC [G5C U9A G21A C42U] the value was 0.13.
For GGCACAGCUCAACACAGCGUGGCAAAGUGGCUGUAGCUAGAGUGCC [G5C G35A C42G] the value was 0.05; for GGCACAGCGCAACACAGCAAGGCAAAGUGGCUGUGGCUAGACUGCC [G5C U9G G19A U20A], 0.42; for GGCACAGCUCAACACAGCGUGGCAAAGUGGCUGUGCCUAGACUUCC [G5C G36C G44U], 0.01.
For GGCACAGCUCAACACAGCGUGGCAAAGUUGCUGUGGCUAGACUGCA [G5C G29U C46A] the value was 0.11; for GGCACAGCUCAACACAGCGUGCCAAAGUGGCUACGGCUAGACUGCC [G5C G22C G33A U34C], 0; for GGCACAGCUCAACACAGCGUGGCAAAGUUGCUGUGGCUGGACUGCC [G5C G29U A39G], 1.85.
GGCACAGCUCAACACAGCGUAGCAAAGUGGCUGUGGCUAGAUUGCC [G5C G21A C42U]: the self-cleavage came out at 0.06.
For GGCACAGCUCAACACAGCGUUGCAAAGUGGCUGUUGCUAGACUGCC [G5C G21U G35U] the value was 0.06; for GGCACAGCGCAACACAGCGUGGCAAAGUGGCUGUGGAUAGACUGCC [G5C U9G C37A], 0.81; for GGCACAGCCCAACACAGAGUGGCAAAGGGGCUGUGGCUAGACUGUC [G5C U9C C18A U28G C45U], 0.01.
The value for GGCACAGCACAACACAGCGAGGGGAAGUGGCUGUGGCUAGACUGCC [G5C U9A U20A C23G A24G] was 0.03; that for GGCACAGCUCAACACAGCAUGGCAAAGUGGCCGUGGCUAGACUGCC [G5C G19A U32C] was 0.04; that for GGCACAGCUCAACACAGCGUGGCAAAGUGGCUGUGUCUAGAUUGCC [G5C G36U C42U] was 0.01.
The value for GGCACAGCUCAACACAGCGUCGCAGAGUGGCUGUGACUAGACUUCC [G5C G21C A25G G36A G44U] was 0.04; that for GGCACAGCUCAACACAGCGUUGCCAAGUGGCUUUGGCUAGACUGGC [G5C G21U A24C G33U C45G] was 0.04; that for GGCACAGCUCAACACAGCGGGUCAAAGUGGCUGUGGCUAGACUGCC [G5C U20G G22U] was 0.06.
Turning to GGCACAGCUCAACACAGCUUGGCACAGUGGCUGUGGCUAGACUGCC [G5C G19U A25C], the self-cleavage is 0.03.
For GGCACAGCUCAACACAGCGAGGCAAAGUUACUGUGGCUAGACUCCC [G5C U20A G29U G30A G44C] the value was 0.04; for GGCACAGCACAACACAGCGUGGCAAAGUGGCUGUCGCUAGACUGCC [G5C U9A G35C], 0.02.
The value for GGCACAGCACAACACAGCGUGGCAAAGUGGCUGUGGCUAGACUGUC [G5C U9A C45U] was 0.06; that for GGCACAGCAGAACACAGCGUCGUAAAGUGGCUGUGGAUAGACUGCC [G5C U9A C10G G21C C23U C37A] was 0.02.
For GGCACAGCACAACACAGCGUGGGAAAGUGGCUGAGGCUAGAUUGCC [G5C U9A C23G U34A C42U] the value was 0.04.
Take GGCACAGCACAACCCAGCGUGGCAAAGUGGCUGUGCCUAGAUUGCC [G5C U9A A14C G36C C42U]: the self-cleavage was 0.03.
For the variant GGCACAGCUCAACACAGCGAGACAAAGUGGCUGUGGCUACACUGCC [G5C U20A G22A G40C], the self-cleavage came out at 0.06.
For GGCACAGCUCAACACAGCGUGGCAAAGUGGCUGAGGCUAGACUGAC [G5C U34A C45A] the value was 0.01; for GGCACAGCUCAACACAGCGUGGCAAAGUCGCUGUUGCCAGACUUCC [G5C G29C G35U U38C G44U], 0.01; for GGCACAGCUCAACACAGCGUAGCAAAGUAGCUGUGCCUAGACUACC [G5C G21A G29A G36C G44A], 0.03.
For GGCACAGCUCAACACAGCGUGUGACAUUGCCUGUGGCUAGACUGCC [G5C G22U C23G A25C G27U G30C] the value was 0.06; for GGCACAGCUCAACACAUAGUGGCAAAGUGGCUGUGGCUAGACUUCC [G5C G17U C18A G44U], 0.03.
For GGCACAGCACAAAACAGCGUGGCAAAGUGGCUGUGGCUUUACUGCC [G5C U9A C13A A39U G40U] the value was 0.01; for GGCACAGCUCAACACAGCGUGUCAGAGUGGCUGUGGCUGGACUGUC [G5C G22U A25G A39G C45U], 0.01; for GGCACAGCUCAACACAGCGUUGCGAAGUGGCUGUGGCUAGACUGCC [G5C G21U A24G], 0.08.
In the case of GGCACAGCUCAACACAGCGCGGAAGAGUGGCUGUGGCUAGCCUGCC [G5C U20C C23A A25G A41C], the self-cleavage turned out to be 0.06.
